# Measurements reported in patent US20030166542A1, “Systemic immune response induced by mucosal administration of lipid-tailed polypeptides without adjuvant” (INSTITUT PASTEUR, priority 1999, published 2003).
# Tested on: BALB/c, C3H/HeJ, C57BL/6 mice
# Experiment: Serum polypeptide-specific IgG ELISA after immunization of mice
# Type: in vivo
# Excerpt: To investigate the ability of lipid-tailed polypeptides to induce systemic antibody responses using mucosal route, the LSA3-NRII lipid-tailed polypeptide was administrated either intranasally (I.N.) or sub-lingually (S.L.) in BALB/c, C3R/HeJ which were found previously to respond strongly to the epitopes of LSA3-NRII or C57BL/6 mice which is poorly responsive. Negative and positive controls received respectively, the non-lipidated polypeptide administrated by IN and S.L. route, or the same lipid-tailed polypeptide injected subcutaneously (S.C.) without adjuvant
# Individual blood samples were obtained via the retro-orbital plexus by 9 to 15 days post immunization (dpi) and sera were stored at −70 iC until assayed for IgG, IgA and IgM polypeptide- and parasite-specific Abs. The presence of anti-peptide antibodies in sera was determined using Enzyme-linked immunosorbent assay (ELISA) as reported previously (BenMohamed et coll., 1997). ELISA plates (Nunc, Roskilde, Denmark) were coated overnight at 4 iC with 0.1 ml of LSA3-NRII or LSA1-J polypeptide solution at 3 μg/ml in PBS buffer pH 7.4 containing 3% BSA. The LSA1-J polypeptide was used as the irrelevant control of LSA3-NRII and vice versa. The plates were washed twice in PBS with 0.01% Tween-20 (PBS-T), blocked for 1 hr in PBS-T supplemented with 1% BSA prior to the addition of 0.1 ml of 1/100 dilution of mouse sera. The plates were then incubated at 37 iC for one hour. After washing, the bound IgG were detected using peroxidase-conjugated goat anti-mouse IgG (Biosys, Compiégne, France) added at a 1/2000 dilution. Following incubation at 37° C. for 1 hour and a final wash, 50 μl of 0.30% H2O2 containing orthophenylenediamine dihydrochloride (OPD, Sigma, St Louis), dissolved in 0.1 M citrate buffer (pH 5.0) were added to each well at room temperature. The OD450 nm was measured using a multichannel spectrophotometer (Titertek Multiskan MCC. 340). Individual sera from all groups were diluted 1/100 and analyzed separately. […] Isotype analysis of mouse was carried out using class specific alkaline phosphatase-conjugated Goat anti-Mouse IgA, IgM, IgG1, IgG2a, IgG2b or IgG3 HRP-Labeled (Southern Biotechnology Associates, Birmingham, USA) added at a 1/2000 dilution in PBS-T, as previously described (BenMohamed et coll., 1997).
substance,measurement,setting,value
"Ac-LEESQVNDDIFNSLVKSVQQEQQHNVK(Pam)NH2 (Ac-LEESQVNDDIFNSLVKSVQQEQQHNVK(Palmitoyl)-NH2; SMILES CCCCCCCCCCCCCCCC(=O)NCCCC[C@H](NC(=O)[C@@H](NC(=O)[C@H](CC(N)=O)NC(=O)[C@H](Cc1c[nH]cn1)NC(=O)[C@H](CCC(N)=O)NC(=O)[C@H](CCC(N)=O)NC(=O)[C@H](CCC(=O)O)NC(=O)[C@H](CCC(N)=O)NC(=O)[C@H](CCC(N)=O)NC(=O)[C@@H](NC(=O)[C@H](CO)NC(=O)[C@H](CCCCN)NC(=O)[C@@H](NC(=O)[C@H](CC(C)C)NC(=O)[C@H](CO)NC(=O)[C@H](CC(N)=O)NC(=O)[C@H](Cc1ccccc1)NC(=O)[C@@H](NC(=O)[C@H](CC(=O)O)NC(=O)[C@H](CC(=O)O)NC(=O)[C@H](CC(N)=O)NC(=O)[C@@H](NC(=O)[C@H](CCC(N)=O)NC(=O)[C@H](CO)NC(=O)[C@H](CCC(=O)O)NC(=O)[C@H](CCC(=O)O)NC(=O)[C@H](CC(C)C)NC(C)=O)C(C)C)[C@@H](C)CC)C(C)C)C(C)C)C(C)C)C(N)=O) [LSA3-NRII lipid-tailed polypeptide, palmitoyl lipid-tailed polypeptide derived from P. falciparum LSA-3]","mean titers of IgG antibodies, mucosal routes versus S.C. route","BALB/c and C3H/HeJ, p<0.05",significantly higher than those recorded by S.C. route
same,antibody response,"C57BL/6 strain, mucosal or subcutaneous administration",No antibody response
same,polypeptide-specific antibody responses in serum (ELISA),"I.N. or S.L. administration, BALB/c and C3H/HeJ, two weeks after second administration, no adjuvant",high titers
same,"polypeptide specific antibody titers, sub-lingual versus intranasal groups","p<0.05 in BALB/c, p<0.01 in C3H/HeJ",significantly higher in sub-lingual immunized groups than in intranasal groups

# *: point of attachment. Palmitoyl = CCCCCCCCCCCCCCCC(=O)*
